# Assay results as given in PubChem BioAssay AID2546 (National Center for Advancing Translational Sciences (NCATS), 2010).
# The campaign covered roughly 310,000 compounds. About 11,000 (3.5%) were called active. The shares of active, inactive and inconclusive entries below differ from those in the screen. Calls follow the shape of the dose curve; as a rule, active = well fitted inhibition curve with a large enough effect; inconclusive = small, poorly fitted or top-dose-only effect, or effect the other way; inactive = flat fitted curve, though single readings scatter. Potencies of inconclusive entries are left out as doubtful fits.
# Experiment: VP16 counterscreen qHTS for inhibitors of ROR gamma transcriptional activity;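 also: Gal4-VP16 expression switched on by copper sulfate through the metallothionein promoter; nearly all actives have a fitted effect of over 50% in size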
# Settings: Drosophila S2 Gal4-VP16 UAS-luciferase, luminescence, 20 h; series mostly up to 53.6 µM
# Potency is read from the fitted curve at half-maximal effect; tags tell the direction and shape of the fitted curve.
row,SMILES,Potency
1,CCN(CC(=O)NCc1ccc(Cl)cc1)C(=O)Cc1ccccc1[N+](=O)[O-],"inconclusive [activator, partial curve]"
2,CCOc1cccc(/C=N/NC(=O)c2cc(-c3cccn3C)n[nH]2)c1O,active: 5.01 µM
3,Cc1ccc2cc3c(N)c(C(=O)N4CCOCC4)sc3nc2c1,"inconclusive [inhibitor, single point]"
4,Cc1ccc2ncnc(Oc3ncccc3[N+](=O)[O-])c2c1,"inconclusive [activator, partial curve]"
5,Cc1nc(NCCc2ccccc2)c2oc3ccccc3c2n1,"inconclusive [inhibitor, single point]"
6,Cc1noc(C)c1COc1ccc(C(=O)OCc2nnc(-c3ccc(Cl)cc3)o2)cc1,inactive
7,CN(C(=O)COC(=O)c1ccccc1C(=O)N1CCN(c2ccccc2)CC1)c1ccccc1,inactive
8,N/C(=N\OC(=O)c1ccc2ccccc2c1)c1cccc([N+](=O)[O-])c1,"inconclusive [inhibitor, single point]"
9,COc1ccc(C(=O)CC(=O)C(=O)Nc2cc(C)ccc2C)cc1,active: 10 µM
10,FC(F)Oc1ccc(NC(=S)NCc2ccccc2)cc1Cl,"inconclusive [inhibitor, single point]"
11,CN(CC(=O)Nc1ccccc1F)Cc1cccs1,"inconclusive [inhibitor, single point]"
12,CN(C)CCN(C)Cc1c2ccccc2c(CN(C)CCN(C)C)c2ccccc12,inactive
13,Cc1ccc2nc(SCC(=O)NC(=O)NCc3ccco3)[nH]c2c1,active: 17.8 µM
14,CC(C)NC(=O)c1cc(-c2cccs2)on1,"inconclusive [inhibitor, single point]"
15,COc1ccc(/C=N/Nc2nc(-c3ccc(Cl)cc3)cc(C(F)(F)F)n2)cc1OC,"inconclusive [activator, single point]"
16,Cc1cc(C(=O)OCn2nnc3ccccc3c2=O)c(C)o1,inactive
17,CCN1CCN(C(CNS(=O)(=O)c2ccc(OC)c(C)c2)c2cccnc2)CC1 (stereo not drawn),inactive
18,C=CCn1c(N)c(-c2nc3ccccc3n2C)sc1=S,"inconclusive [inhibitor, single point]"
19,CCNC(=S)NC(=NCc1cccnc1)Nc1nc(C)cc(C)n1,"inconclusive [inhibitor, single point]"
20,Cc1ccc(S(=O)(=O)NCCC(=O)NCc2ccco2)cc1,inactive
21,Nc1ccc(Br)cc1C(=O)O,active: 1.41 µM
22,N=C1/C(=C/c2cccn2-c2cccc([N+](=O)[O-])c2)C(=O)N=C2SC=CN12,"inconclusive [inhibitor, partial curve, poor fit]"
23,COc1ccc(NC(=O)c2ccc(N3C(=O)C4CC=C(C)CC4C3=O)cc2)c(OC)c1 (stereo not drawn),inactive
24,CCCCCCCn1c(=O)c(C(=O)OC)c(N)c2ccccc21,active: 1.26 µM
25,CCOC(=O)C1CCN(S(=O)(=O)c2ccc3c(c2)NC(=O)C(C)S3)CC1 (stereo not drawn),inactive

row,SMILES,Potency
1,CCCN(CCC)c1ncnc2c1cnn2-c1ccc(OC)cc1,"inconclusive [inhibitor, single point]"
2,C/C(Cn1nnc([N+](=O)[O-])n1)=N\NC(=O)c1cccc(Cl)c1,"inconclusive [inhibitor, single point]"
3,CN1CCN(C2=Cc3ccccc3Sc3cc(F)c(F)cc32)CC1,active: 7.94 µM
4,CNC1C(O)C(OC2C(NC(=O)C(O)CN)CC(N)C(OC3OC(CN)C(O)C(O)C3O)C2O)OCC1(C)O (stereo not drawn),inactive
5,O=C(CCc1ccccc1)NNC(=O)c1ccccn1,"inconclusive [inhibitor, single point]"
6,Cc1nnnn1/C(=C\c1ccccc1)C(=O)OCC(=O)N1CC2(C)CC1CC(C)(C)C2 (stereo not drawn),active: 10 µM
7,COc1ccc(-c2cc(=O)c3cc(OC)ccc3[nH]2)cc1,"inconclusive [inhibitor, single point]"
8,COc1ccccc1NS(=O)(=O)c1cc(NC(=O)c2ccc(Cl)nc2)ccc1Cl,active: 20 µM
9,COCC(=O)Nc1c(C(=O)Nc2ccccc2OC)oc2ccccc12,"inconclusive [activator, partial curve, poor fit]"
10,O=C(NCCc1cccs1)C(c1ccccc1)c1ccccc1,inactive
11,COc1cccc(N=c2oc3cc(O)ccc3cc2C(=O)NCC2CCCO2)c1 (stereo not drawn),inactive
12,Clc1ccc(C2=NNC(=NCC3CCCO3)SC2)cc1 (stereo not drawn),"inconclusive [inhibitor, single point]"
13,COC(=O)c1ccc2c(=O)n(-c3ccc(OC)cc3)c(=S)[nH]c2c1,active: 5.62 µM
14,Cc1ccc(C(=O)NC(=S)Nc2ccc(S(=O)(=O)N(C)c3ccccc3)cc2)cc1,"inconclusive [inhibitor, single point]"
15,COc1ccccc1NS(=O)(=O)c1cccc(NC(=O)c2ccc3ccccc3n2)c1,"inconclusive [inhibitor, single point]"
16,CCOC(=O)N1CCN(c2nnc(-c3ccccc3)c3ccccc23)CC1,"inconclusive [inhibitor, partial curve]"
17,CN1CCN(C(=S)NC(=O)c2ccc(Cl)cc2)CC1,active: 1 µM
18,COC(=O)NC(=S)Nc1ccc(Oc2ccc(Cl)cc2Cl)c(Cl)c1,"inconclusive [inhibitor, single point]"
19,CNC(=O)C1(C)C=CCN1C(=O)OC (stereo not drawn),"inconclusive [activator, full curve, poor fit]"
20,CCCSc1cc(NCCOC(=O)CCC)c([N+](=O)[O-])c2nonc12,"inconclusive [inhibitor, single point]"
21,COc1ccccc1C(=O)Nc1nc2ccccc2s1,active: 1 µM
22,COc1ccc(/C(C)=N/NC(=O)c2nnn(-c3nonc3N)c2CN(C)c2ccccc2)cc1,"inconclusive [inhibitor, single point]"
23,CCc1cc(C(=O)Cc2cnn(-c3ccccc3)c2)c(O)cc1O,"inconclusive [inhibitor, single point]"
24,CC(C)N(C(=S)NCc1ccccc1)c1ccccc1,"inconclusive [inhibitor, single point]"
25,COc1cc2[nH]c(=S)nc(NCc3ccc(Cl)cc3)c2cc1OC,active: 7.08 µM

row,SMILES,Potency
1,Cc1ccc(C(=O)N/C(=C/c2ccc(N(C)C)cc2)C(=O)NCC2CCCO2)cc1 (stereo not drawn),inactive
2,Cc1ccc(Nc2nnc(SCC(=O)NCCN3C(=O)CSC3=O)s2)cc1C,"inconclusive [inhibitor, single point]"
3,Cc1ccnc(NC(=O)COc2ccccc2[N+](=O)[O-])c1,"inconclusive [inhibitor, partial curve]"
4,Fc1ccc(CSc2ccc(-c3ccco3)nn2)cc1,"inconclusive [activator, partial curve]"
5,CC(=Nc1ccccc1N)c1c(C)cc(=O)n(O)c1O,"inconclusive [inhibitor, single point]"
6,N/C(=N\OC(=O)c1ccc(Cl)cc1Cl)c1ccccn1,"inconclusive [inhibitor, partial curve]"
7,Oc1ccc(Cl)cc1C=Nc1ccccc1Br,"inconclusive [activator, single point]"
8,CC1CCCN(S(=O)(=O)c2ccc(C(=O)Nc3nnc(C4CC4)o3)cc2)C1 (stereo not drawn),active: 1 µM
9,Cc1ccccc1NC(=O)CC1c2ccccc2CC(C)(C)N1C (stereo not drawn),"inconclusive [inhibitor, single point]"
10,CCOC(=O)c1cn[nH]c1NC(=S)Nc1ccc(Cl)cc1,"inconclusive [inhibitor, single point]"
11,CCOC(=O)Cc1csc(NC(=O)CSc2nnnn2-c2ccc(CC)cc2)n1,"inconclusive [inhibitor, single point]"
12,CCC(C)c1ccc(NC(=O)c2[nH]c(C)c(C(C)=O)c2C)cc1 (stereo not drawn),"inconclusive [inhibitor, single point]"
13,CCOc1ccc(NS(=O)(=O)c2ccc(C(=O)N(C)Cc3cccc(OC)c3OC)cc2)cc1,"inconclusive [inhibitor, single point]"
14,Cc1cc(NC2CCCCC2)nc(NCc2ccccc2)n1,"inconclusive [inhibitor, single point]"
15,CCC(=O)NC(=S)NNC(=O)c1ccc(NC(=O)c2ccccc2)cc1,inactive
16,Cc1c(C(=O)NC(=S)Nc2ccc(NC(=O)c3cccs3)cc2)oc2ccccc12,"inconclusive [inhibitor, single point]"
17,CCOC(=O)Cc1[nH]nc2c1C(C1C=CCCC1)C(C#N)=C(N)O2 (stereo not drawn),"inconclusive [inhibitor, single point]"
18,CN=C1C=CC(=C(c2ccc(N(C)C)cc2)c2ccc(N(C)C)cc2)C=C1,active: 2.51 µM
19,S=c1nc(C2CC2)n(-c2ccccc2)[nH]1,"inconclusive [inhibitor, single point]"
20,COc1ccc(N2C(=O)/C(=C/c3cccs3)NC2=S)cc1,"inconclusive [inhibitor, single point]"
21,CC(C)CN(CC(C)C)C(=O)Cc1coc2ccc3ccccc3c12,"inconclusive [inhibitor, single point]"
22,c1ccc(NC2=Nc3ccccc3CS2)cc1,"inconclusive [inhibitor, partial curve]"
23,Cc1ccc(O)c(C(=O)CC(=O)c2ccccc2Cl)c1,active: 12.6 µM
